From PubChem BioAssay AID662 (National Center for Advancing Translational Sciences (NCATS), 2007)
About 1,800 (2.5%) of roughly 71,000 compounds were called active. Inconclusive results, whose numbers are uncertain, are shown with a selection of clear calls. Calls come from the whole dose curve; as a rule, active = well fitted activation curve with a large enough effect in the signal ratio, with a control signal flat (not every such curve was filed as active); inconclusive = small, poorly fitted or top-dose-only effect, or effect the other way, or a change in a side signal; inactive = flat fitted curve, though single readings scatter; the % refers to the signal ratio. A potency beside an inconclusive call is a rough fit, not a confirmed value.

Test: Cell signaling CRE-BLA (Fsk stim); for activity change, negative = inhibition: % of control where 0% means no effect
Conditions: CHO CRE-bla reporter (cAMP response element driving beta-lactamase), forskolin EC10, beta-lactamase ratio; activity change, negative = inhibition: at 38.2 µM (top of the series) unless noted
How it was run: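 Modulation of forskolin signalling: compounds in titration series added with EC10 NKH 477 to CHO cells carrying a CRE-driven beta-lactamase reporter, 3 h, 37C. CCF4 FRET ratio (460/530 nm, ex 405 nm) gives %activity and AC50.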
Potency is the fitted concentration of half-maximal effect; tags give direction and shape of the fitted curve.

| SMILES | activity change, negative = inhibition | Potency |
| --- | --- | --- |
| Cc1cc(C)c(S(=O)(=O)N(CC(=O)N2CCCC2)C2CCCCC2)c(C)c1 | inconclusive: -14.1% |  |
| Cc1cc(=O)n2nc(N3CCCC(C(=O)NCc4ccc5c(c4)OCO5)C3)sc2n1 (configuration not stated) | inconclusive: 2.61% |  |
| Cc1cc(NC(=O)CCC2COc3ccccc3O2)no1 (configuration not stated) |  | inactive |
| O=C1c2cccc3cccc(c23)C(=O)N1c1cccnc1 |  | inconclusive: 10 µM [rising, single point] |
| COc1cc(SC)ccc1C(=O)OC1CCOC1=O (configuration not stated) | inconclusive: -24.4% |  |
| Cc1cc(C(F)(F)F)nc(NCc2ccc(F)cc2)n1 | inconclusive: 11.6% |  |
| COc1ccc(Cl)cc1NC(=O)CN1CCC(n2nnc3ccccc32)CC1 | inconclusive: 18.6% |  |
| COc1ccc(NC(=O)Cn2nnc(C(=O)NCc3ccccc3OC)c2N)cc1Cl | inconclusive: 30.2% |  |
| COc1cc(OC)cc(C(=O)Nc2cc(NC(=O)c3ccco3)ccc2OC)c1 |  | inconclusive: 12.6 µM [rising, single point] |
| CCC(Sc1ccc2nnc(-c3ccc(F)cc3)n2n1)C(=O)O (configuration not stated) |  | inactive |
| CCOCCCn1c(=S)[nH]c2cc3c(cc2c1=O)OCO3 |  | inactive |
| CCN(CC)CCNC(=O)c1cc2c(-c3ccc(Cl)cc3)nn(C)c2s1 |  | inconclusive: 10 µM [rising, partial curve] |
| O=C(O)CCc1ccc(-c2ccc(Cl)cc2)n1Cc1ccco1 |  | inactive |
| Cc1ccc(C)c(N2CCN(C(=O)c3ccc(NS(=O)(=O)c4c(C)noc4C)cc3)CC2)c1 |  | inconclusive: 12.6 µM [rising, partial curve] |
| CC1(C)CC(NC(=O)c2coc(=O)c(Br)c2)CC(C)(C)N1 |  | inactive |
| COC(=O)c1[nH]c2cc(C)ccc2c1NC(=O)CN1CCc2cc(OC)c(OC)cc2C1 |  | active: 2 µM |
| O=C(CN1CCN(C2CCCCC2)CC1)Nc1ccccc1-c1ccccc1 |  | inactive |
| Cc1ccc(C)c(C(=O)CC2(O)C(=O)N(C)c3ccccc32)c1 (configuration not stated) |  | inconclusive: 0.02 µM [rising, full curve, poor fit] |
| c1cncc(-c2nn3c(Cn4cnc5ccccc54)nnc3s2)c1 |  | inconclusive: 0.0631 µM [rising, full curve] |
| COc1cc2c3cc1Oc1c(OC)c(OC)cc4c1[C@@H](Cc1ccc(O)c(c1)Oc1ccc(cc1)C[C@@H]3N(C)CC2)N(C)CC4 |  | inactive |
| CCn1c(SC/C=C/c2ccccc2)nnc1-c1cnccn1 |  | inconclusive: 12.6 µM [rising, partial curve] |

| SMILES | activity change, negative = inhibition | Potency |
| --- | --- | --- |
| O=C(c1cccs1)c1ccc(-c2cccs2)s1 |  | inconclusive: 10 µM [rising, partial curve] |
| CC(NC(=O)C(CC(=O)OC(C)(C)C)NC(=O)OC(C)(C)C)C(N)=O (configuration not stated) |  | inactive |
| COCCn1c(C)nc2oc3ccc(Br)cc3c(=O)c2c1=O | inconclusive: 16.4% |  |
| Cc1noc(C)c1S(=O)(=O)NCC(=O)O | inconclusive: 6.87% |  |
| O=C(CCCCCN1C(=O)c2ccccc2C1=O)NCc1ccco1 |  | inactive |
| CC(C)C[C@H](NC(=O)OC(C)(C)C)c1nnc(SCC(=O)Nc2ccc(Br)cc2)o1 |  | inactive |
| CCN(CCCNC(=O)COc1cc(=O)n(CC)c2ccccc12)c1ccccc1 |  | inconclusive: 10 µM [rising, single point] |
| C[N+](C)(C)CC[N+]1(C)Cc2c(Cl)c(Cl)c(Cl)c(Cl)c2C1 | inconclusive: -21.2% |  |
| COc1cccc(NC(=O)c2ccccc2-c2nc(-c3ccc(Cl)cc3)no2)c1 | inconclusive: 9.51% |  |
| COc1ccc2nc(Nc3ccc4c(c3)OCO4)sc2c1 | inconclusive: 29.3% |  |
| CN(C(=O)CN1C(=O)c2ccccc2S1(=O)=O)c1ccccc1C(=O)O |  | inactive |
| NC(=O)C1CCC(NC(=O)OCc2ccccc2)CC1 (configuration not stated) |  | inactive |
| O[C@@H](COc1cccc2ccccc12)CN1CCOCC1 | inactive: -1.71% [at 7.6 µM] |  |
| CCN(CCCNC(=O)COc1cc(=O)n(C)c2ccccc12)c1ccccc1 |  | inconclusive: 10 µM [rising, single point] |
| O=C(c1ccc(-c2cccc(C(F)(F)F)c2)o1)N1CCOCC1 |  | inconclusive: 31.6 µM [rising, partial curve] |
| COc1ccc2[nH]c(=O)c(CN(Cc3nnnn3Cc3ccccc3)CC3CCCO3)cc2c1 (configuration not stated) |  | inactive |
| Cc1c(N=c2c(=O)c3ccccc3c2=O)c(=O)n(-c2ccccc2)n1C |  | inconclusive: 12.6 µM [rising, single point] |
| COc1ccc(-c2nnc(CSc3nc4ccccc4c(=O)n3CC(C)C)o2)cc1OC |  | active: 3.16 µM |
| CCn1cc(C(=O)O)c(=O)c2ccc(Cc3ccccc3)nc21 | inconclusive: 16.6% |  |
| COc1cccc(-n2c(Cc3cc(=O)[nH]c(=O)[nH]3)nnc2SCC(=O)N2CCCC2)c1 | inconclusive: -1.16% |  |
| Cn1c(=O)[nH]c(=O)c2c1nc(N1CCCCCC1)n2CCSc1nc2ccccc2[nH]1 | inconclusive: 25.5% |  |

| SMILES | activity change, negative = inhibition | Potency |
| --- | --- | --- |
| O=C(NCCN1CCN(c2ccccc2F)CC1)c1cccn2c(=O)c3ccccc3nc12 | inconclusive: 29.8% |  |
| CCn1c(C)csc1=NC(=O)c1ccccc1 | inconclusive: -14.9% |  |
| CN(C)c1ccc(-c2nc(N(C)Cc3ccco3)c3ccccc3n2)cc1 |  | inconclusive: 12.6 µM [rising, single point] |
| O=C1CSC(c2cccc(F)c2)N1c1ccccc1F (configuration not stated) | inconclusive: 1.24% |  |
| Cn1ccnc1C[C@@](C)(O)c1ccccc1 | inconclusive: 5.88% [at 7.6 µM] |  |
| COc1ccc(-n2nnnc2SCC(=O)Nc2cccc(C)n2)cc1OC |  | inconclusive: 10 µM [rising, single point] |
| Cc1nc(Nc2ccc3c(c2)OCCO3)c2oc3ccccc3c2n1 |  | inconclusive: 3.98 µM [rising, partial curve] |
| COc1cccc(-n2nnc3c(=O)n(CC(=O)N4CCC(C)CC4)cnc32)c1 | inconclusive: -5.2% |  |
| COc1ccc([C@H]2Sc3ccccc3N(CCN(C)C)C(=O)[C@H]2OC(C)=O)cc1 |  | inactive |
| O=C(CSc1nnc2scc(-c3ccccc3)n12)N1CCN(Cc2ccccc2)CC1 |  | inconclusive: 12.6 µM [rising, partial curve] |
| Cc1cc(Nc2nc3c(c(=O)n(C)c(=O)n3C)n2C)n(-c2ccccc2)n1 |  | inactive |
| CCOCCCNC(=O)CCCOc1ccccc1 | inconclusive: -5.57% |  |
| Cc1ccc(OCCSc2cc(C)nc(N)n2)cc1 |  | inactive |
| Cn1c(=O)[nH]c(=O)c2c1nc(N1CCOCC1)n2CCCSc1ncccn1 | inconclusive: 21.6% |  |
| COc1nc2ccccc2c(=O)n1OCC(C)C |  | inconclusive: 12.6 µM [rising, single point] |
| COc1ccc(-c2nc3cncnc3n(-c3ccccc3)c2=O)cc1 |  | active: 2.51 µM |
| O=C(CCN1C(=O)c2ccccc2C1=O)OCn1nnc2ccccc2c1=O |  | inconclusive: 0.0501 µM [falling, full curve] |
| COc1ncc2ncc(=O)n(C[C@H]3CCCO3)c2n1 |  | inactive |
| O=C(Nc1nc(-c2cc3ccccc3oc2=O)cs1)c1ccco1 |  | inconclusive: 10 µM [rising, partial curve] |
| CC(=O)N1CCc2cc(S(=O)(=O)CCC(=O)O)ccc21 | inconclusive: -2.05% |  |
| COc1ccc(C2NC(=O)NC(O)(C(F)(F)F)C2C(=O)c2ccc(C)cc2)cc1 (configuration not stated) | inconclusive: -36.8% [at 7.6 µM] |  |

| SMILES | activity change, negative = inhibition | Potency |
| --- | --- | --- |
| O=C1c2cccc3c(Cl)ccc(c23)C(=O)N1O | inconclusive: -25.8% [fluorescent] |  |
| CCc1ccccc1N(CC(=O)NCCSCc1ccco1)S(C)(=O)=O | inconclusive: 1.68% [at 7.6 µM] |  |
| Cn1cnc2c1c(=O)n(Cc1ccc(F)cc1Cl)c(=O)n2C |  | inconclusive: 12.6 µM [rising, single point] |
| COc1ccc(-n2c(=O)c3ccccc3n(CC(=O)NC3CCCC3)c2=O)cc1 |  | inconclusive: 0.251 µM [rising, full curve, poor fit] |
| COc1nc(NCCc2ccc(OC)c(OC)c2)nc(NC(C)(C)CO)n1 |  | inconclusive: 12.6 µM [rising, partial curve] |
| O=C(Cn1c(NCCCO)nc2ccccc21)c1cccs1 |  | inactive |
| COCCn1c(=O)cnc2cnc(Oc3ccc(OC)cc3)nc21 | inconclusive: 8.16% |  |
| Cc1cccc(OCCCCc2c(C)n[nH]c2C)c1C | inconclusive: -23.5% |  |
| COc1cc2c(C(=O)Nc3ccc4c(c3)OCO4)cn(CC(C)C)c(=O)c2cc1OC |  | inconclusive: 5.01 µM [rising, partial curve] |
| CCc1nc(N)c(C#N)c(-c2ccco2)c1C |  | active: 10 µM |
| COc1cccc(Cn2c(=O)c(-c3cccs3)nc3cnc(Nc4ccccc4)nc32)c1 |  | inconclusive: 0.251 µM [rising, full curve] |
| Cc1cc(Cl)c(S(=O)(=O)N2CCCCCC2)cc1OCC(N)=O | inconclusive: -1.65% |  |
| C=CCn1c(SCC(=O)NCC2CCCO2)nnc1C1CCCCC1 (configuration not stated) | inconclusive: -3.55% |  |
| COc1cccc(-c2nc(C(N)=O)c3[nH]c(=O)n(-c4cccc(Cl)c4)c3n2)c1OC |  | active: 10 µM |
| COc1ccc(N(C(=O)c2ccco2)S(=O)(=O)c2cccs2)cc1 |  | inconclusive: 25.1 µM [rising, single point] |
| CC(C)(C)/C(O)=C(/C#N)c1nc2ccccc2[nH]1 | inconclusive: 12.3% |  |
| CS(=O)(=O)NCC(c1cccnc1)N1CCN(c2ccc(F)cc2)CC1 (configuration not stated) | inconclusive: 1.13% |  |
| COc1ccccc1CNC(=O)c1c(O)c2cc(OC)c(OC)cc2[nH]c1=O |  | inactive |
| O=C1CC(Nc2ccc(N3CCOCC3)cc2)C(=O)N1c1cccc(C(F)(F)F)c1 (configuration not stated) |  | inactive |
